Test results taken from PubChem BioAssay AID602179 (National Center for Advancing Translational Sciences (NCATS), 2012).
The campaign covered roughly 390,000 compounds. About 360 (0.092%) were called active. The shares of active, inactive and inconclusive entries below differ from those in the screen. Calls follow the shape of the dose curve; as a rule, active = well fitted inhibition curve with a large enough effect; inconclusive = small, poorly fitted or top-dose-only effect; inactive = no such curve, though single readings can be large or run the other way. Where the call is inconclusive, the potency comes from a doubtful curve fit.

Each molecule was assayed against Isocitrate dehydrogenase [NADP] cytoplasmic (Homo sapiens) (UniProt O75874) (assay: qHTS for Inhibitors of mutant isocitrate dehydrogenase 1 (IDH1): qHTS). Conditions: IDH1-R132H enzyme, NADPH consumption, diaphorase/resazurin fluorescence; series mostly up to 76.6 µM; activity change, negative = inhibition: at the top concentration.
Source text: Unbiased genomic sequencing for 22 glioma genomes found recurrent mutation of isocitrate dehydrogenase 1 (IDH1) on chromosome 2q33-a gene encoding the cytosolic isoform of IIDH1associated with the tricarboxylic acid cycle (TCA) that catalyzes the oxidative decarboxylation of isocitrate, yielding alpha-ketoglutarate and CO2 via NADP+ to NADPH conversion. Subsequent studies confirmed the recurrent IDH mutations in up to 70% of secondary gliomas and in 10% of AML cases. […] This in effect defines IDH1 as an oncogene, and provides an extraordinary opportunity to discover chemical probes against mutant IDH1 that may translate into much needed new therapies for glioma and AML patients. […] NIH Chemical Genomics Center [NCGC] NIH Molecular Libraries Probe Centers Network [MLPCN] MLPCN Grant: DA032129 Assay Submitter (PI): Lenny Dang, Agios Pharmaceuticals
IDH1-R132H (0.5 ug/mL) was dispensed into black, solid-bottom 1536-well plates at 3 uL/well in 20 mM Tris-HCl (pH 7.5), 150 mM NaCl, 10 mM MgCl2, 4 mM beta-ME, and 0.05% protease-free BSA. Then, 23 nL of compounds or DMSO were delivered to each well using a pin tool. A pre-read was run on the Viewlux to identify fluorescent compounds (540 nm excitation filter, 598 nm emission filter, bodipy mirror and 2 second exposure). After 30 minutes of incubation with compound, 3 uL of substrate mix were dispensed (0.016 mM NADPH, 2 mM alpha-KG, 20 mM Tris-HCl (pH 7.5), 150 mM NaCl, 10 mM MgCl2, and 0.05% protease-free BSA). Plates were spun for 1 min at 1000xg and incubated at room temperature for 80 min. Then 1.5 uL of each detection reagent component for the coupling system were added (0.12 mg/mL diaphorase and 0.072 mM resazurin, each in 20 mM Tris-HCl (pH 7.5), 150 mM NaCl, 10 mM MgCl2, and 0.05% protease-free BSA ) The protein, substrate and two detection components were maintained at 4 °C throughout the screen. Additionally, the substrate and resazurin reagents were protected from light. The plates were measured on an Envision plate reader for fluorescence signal using a 540 nm excitation filter and 590 nm emission filter with 10 flashes. 1x and 0x (no-enzyme) IDH1-R132H enzyme control were used to normalize %Activity of identified inhibitors; 0x enzyme values corresponded to 100% Activity (full inhibition), while 1x IDH1-R132H enzyme values were used to normalize 0%Activity (no inhibition). Concentration-response curves were fitted to the signals arising from the resulting fluorescence. The concentration-effect curves were then classified based on curve quality (r2), response magnitude and degree of measured activity, and compounds were subsequently categorized based on their curve class. […] Keywords: isocitrate dehydrogenase, IDH1, IDH1-R132H, MLSMR, MLPCN, NIH Roadmap, qHTS, NCGC
Also: nearly all actives have a fitted effect of over 65% in size.
Potency is read from the fitted curve at half-maximal effect; tags tell the direction and shape of the fitted curve.

Compound | Potency | activity change, negative = inhibition
CC[C@@H](C)[C@H](NC(=O)CCc1c(C)c2cc3c4c(oc3c(C)c2oc1=O)CCCC4)C(=O)O | inconclusive: 58.5 µM [inhibitor, single point] | –
NS(=O)(=O)c1ccc(-c2ccc(/C=C3\NC(=S)NC3=O)o2)cc1 | inconclusive: 50.1 µM [inhibitor, single point] | –
CC(C)CNC(=S)NC(=O)c1ccc([N+](=O)[O-])cc1 | – | inactive: 4.02%
CCCCCNC(=O)C(=O)C1C(=O)Nc2ccccc21 (stereo unspecified) | inconclusive: 58.5 µM [inhibitor, partial curve, poor fit] | –
O=C(COc1ccccc1/C=C\c1[nH]c(=O)[nH]c(=O)c1[N+](=O)[O-])Nc1ccccc1 | active: 41.4 µM | –
S=c1[nH]nc(-c2cc(-c3ccccc3)n[nH]2)n1/N=C/c1ccc(Br)s1 | inconclusive: 46.5 µM [inhibitor, partial curve] | –
Cc1cccc(C(=O)n2nc(-c3cccnc3)nc2NCc2ccc(F)cc2)c1 | inconclusive: 50.1 µM [inhibitor, single point] | –
O=S(=O)(c1ccc(NC(=S)NC23CC4CC(CC(C4)C2)C3)cc1)N1CCCCC1 | – | inactive: 9.57%
CCOc1cccc(CNC(=O)c2ccc(N3CCCC3)c(NC(=O)Nc3ccccc3CC)c2)c1 | – | inactive: -22.9%
O=c1cc(O)c2ccc(O)cc2o1 | – | inactive: 0.112%
O=C(O)c1cccc(S(=O)(=O)N2CCC(Cc3ccccc3)CC2)c1 | inconclusive: 50.1 µM [inhibitor, single point] | –
Cc1ccc(NC(=O)C(OC(=O)c2ccc(C=O)cc2)c2ccccc2)cc1Cl (stereo unspecified) | inconclusive: 11.7 µM [inhibitor, full curve, poor fit] | –
CC(=O)n1c2c(c3ccccc31)OC(N)=C(C#N)C2c1ccc(C(C)C)cc1 (stereo unspecified) | inconclusive: 23.3 µM [inhibitor, partial curve, poor fit] | –
NC(=O)c1c(NC(=O)CCCn2cnc([N+](=O)[O-])n2)sc2c1CCCC2 | – | inactive: 4.99%
CCCC(=O)N1c2ccccc2-c2nnc(SC)nc2OC1c1sccc1C (stereo unspecified) | inconclusive: 44.7 µM [inhibitor, partial curve, poor fit] | –
CCOc1ccc(S(=O)(=O)n2cc(F)c(=O)[nH]c2=O)cc1 | inconclusive: 26.1 µM [inhibitor, single point] | –
S=C(NC1CCCCC1)N1CCN(C2CCCCC2)CC1 | – | inactive: 6.88%
Cc1ccc2cc(/C=C(\C#N)C(N)=O)c(N3CCCCC3)nc2c1 | – | inactive: -8.98%
CCOc1ccc(-n2cc(-c3ccccc3)c3c(NC4CCCC4)ncnc32)cc1 | inconclusive: 28.2 µM [inhibitor, full curve] | –
CC1=CC(C)(C)N2C(=O)C3(C(C#N)=C(N)Oc4cc(O)ccc43)c3cccc1c32 (stereo unspecified) | inconclusive: 23.3 µM [inhibitor, partial curve, poor fit] | –
NS(=O)(=O)c1ccc(N2N=C(c3ccc(Br)cc3)CC2c2ccc(F)cc2)cc1 (stereo unspecified) | inconclusive: 13.1 µM [inhibitor, single point] | –
Cc1ccc(NC(=O)CN2C(=O)N/C(=C/c3ccc(C)s3)C2=O)cc1 | – | inactive: 2.25%

Compound | Potency | activity change, negative = inhibition
COc1ccc(CCN(C)CC(O)COc2c(C)ccc(C)c2C)cc1OC (stereo unspecified) | – | inactive: -6.81%
O=C(CN1C(=O)CSc2ccc(S(=O)(=O)N3CCCC3)cc21)NCc1ccccc1Cl | inconclusive: 56.2 µM [inhibitor, single point] | –
N#Cc1c(N)nc2c3c(sc(=N)c2c1N)NC(=O)CC3c1c(F)cccc1Cl (stereo unspecified) | inconclusive: 13.1 µM [inhibitor, full curve] | –
COc1ccc(CN2CCN(Cc3c[nH]c4ccccc34)CC2)c(OC)c1 | – | inactive: -4.25%
CCc1cc(SC#N)cc(CC)c1NC(=O)CCl | inconclusive: 58.5 µM [inhibitor, single point] | –
CSc1ncc(Cl)c(C(=O)Nc2ccc(S(=O)(=O)Nc3nccc(C)n3)cc2)n1 | inconclusive: 63.1 µM [inhibitor, single point] | –
CC(=O)C1=C(c2ccccc2)N(C(C)=O)n2c(nnc2C2CCCCC2)S1 | inconclusive: 44.7 µM [inhibitor, partial curve, poor fit] | –
CCCCN(CCCC)c1nc(-c2ccncc2)nc2ccccc12 | inconclusive: 32.9 µM [inhibitor, partial curve, poor fit] | –
CC(=O)c1cccc(-n2c(=O)c3c4c(sc3n(Cc3cccc(C)c3)c2=O)CN(C(C)=O)CC4)c1 | inconclusive: 44.7 µM [inhibitor, partial curve, poor fit] | –
COc1cccc(Cn2c(=O)n(-c3cccc(Cl)c3)c(=O)c3c4c(sc32)CN(C(C)=O)CC4)c1 | inconclusive: 15.8 µM [inhibitor, full curve] | –
CC(C)(C)c1n[nH]c(=S)n(/N=C/c2cccs2)c1=O | – | inactive: 6.41%
Cc1cccc(Nc2nc(N)c([N+](=O)[O-])c(N3CCCC(C)C3)n2)c1 (stereo unspecified) | inconclusive: 58.5 µM [inhibitor, single point] | –
O=C(c1ccccc1)c1c2c(cc3sc4ccccc4[n+]13)-c1cccc3cccc-2c13 | inconclusive: 50.1 µM [inhibitor, single point] | –
COc1cc(C2(c3ccc(O)c(OC)c3)C(=O)Nc3c(Br)cc(Br)cc32)ccc1O | active: 52.1 µM | –
S=c1[nH]nc(-c2cc(-c3ccccc3)n[nH]2)n1/N=C/C(Br)=C/c1ccccc1 | inconclusive: 44.7 µM [inhibitor, partial curve, poor fit] | –
CCOC(=O)c1cc2c(=O)n3cccc(C)c3nc2n(Cc2ccco2)c1=NC(=O)c1ccc(C)cc1 | – | inactive: 8.23%
Cc1cc(NC(=O)CCC(=O)N(c2ccccc2F)C(C(=O)NC2CCCC2)c2ccccc2)no1 (stereo unspecified) | inconclusive: 23.3 µM [inhibitor, partial curve] | –
Cc1ccc(C(C(=O)NC2CCCCC2)N(Cc2ccco2)C(=O)C2COc3ccccc3O2)o1 (stereo unspecified) | inconclusive: 13.1 µM [inhibitor, full curve] | –
Cc1ccn2c(Nc3ccc(C(C)C)cc3)c(-c3cccnc3)nc2c1 | inconclusive: 50.1 µM [inhibitor, single point] | –
COc1cccc2c1C(=O)c1c(O)c3c(c(O)c1C2=O)CC(O)(C(C)=NNC(=O)c1ccc(Cl)c(Cl)c1)CC3OC1CC(N)C(O)C(C)O1 (stereo unspecified) | inconclusive: 46.5 µM [inhibitor, partial curve] | –
COC(=O)c1cc2sccc2n1Cc1ccc(F)cc1Cl | inconclusive: 63.1 µM [inhibitor, single point] | –
CC1=C(C(=O)OC(C)C)C(c2cccc([N+](=O)[O-])c2)n2c(cc(=O)[nH]c2=S)N1 (stereo unspecified) | inconclusive: 52.1 µM [inhibitor, single point] | –

Compound | Potency | activity change, negative = inhibition
CC(C)C[C@@H](CN)NC(=O)c1nc[nH]c1C(=O)N[C@@H](C)C(=O)CNC[C@H](C)NC(=O)c1nc[nH]c1C(=O)N[C@@H](C)C(=O)O | – | inactive: 6.07%
CN(C)c1ccc(C=c2c3ccccc3n3c2c2c([n+]3C)CCCC2)cc1 | – | inactive: 5.85%
COc1cc(C2(c3ccc(O)c(OC)c3)C(=O)N(C)c3ccc(Br)cc32)ccc1O | – | inactive: -12.6%
CCc1nnc(NC(=O)CSc2nnc(-c3ccc(NS(=O)(=O)c4ccccc4)cc3)o2)s1 | – | inactive: 7.27%
C=CCOC(=O)C1=C(C)NC(=S)C(C#N)(CC=C)C1c1ccccc1Cl (stereo unspecified) | inconclusive: 58.5 µM [inhibitor, single point] | –
COC(=O)c1c(NC(=O)/C(C#N)=C/c2ccccc2)sc2c1C(C(=O)OC)CC2 (stereo unspecified) | inconclusive: 50.1 µM [inhibitor, single point] | –
O=C(NCCCN1CCOCC1)c1cnn2c(-c3ccccc3)cc(-c3ccccc3)nc12 | inconclusive: 32.9 µM [inhibitor, partial curve] | –
Cc1ccc(OCCCN(C)C)c(Br)c1 | – | inactive: 2.74%
CC(C)=CCc1cc([C@@H]2CC(=O)c3ccc(O)c(CC=C(C)C)c3O2)ccc1O | inconclusive: 50.1 µM [inhibitor, partial curve, poor fit] | –
COc1ccc2c(c1OC)C(=O)OC2Nc1nc(-c2ccc([N+](=O)[O-])cc2)cs1 (stereo unspecified) | – | inactive: 0%
CCOc1ccc(/C=C2\SC(=O)N(c3ccc(O)cc3)C2=O)cc1OC | inconclusive: 58.5 µM [inhibitor, single point] | –
O=C(Nc1nc(-c2ccccn2)cs1)c1cccc(-n2cnnn2)c1 | – | inactive: -5.14%
Cc1ccccc1N=C1c2cc([N+](=O)[O-])ccc2-c2ncccc21 | inconclusive: 16.5 µM [inhibitor, partial curve, poor fit] | –
CCn1c2ccccc2c2cc(Nc3cc(C)nc4ncnn34)ccc21 | inconclusive: 50.1 µM [inhibitor, single point] | –
COc1ccccc1NC(=O)C(=O)/C=C(\O)c1ccccc1 | – | inactive: -7.67%
COc1ccc(Nc2nc(N3CCCCC3)nc3ccccc23)c(OC)c1 | – | inactive: 11.4%
CCOC(=O)c1cc2c(=O)n3ccccc3nc2n(Cc2ccco2)c1=NC(=O)c1cc(C)cc(C)c1 | inconclusive: 44.7 µM [inhibitor, single point] | –
Cc1ccc(C)c(N(C)C(=O)c2cc3c(=O)[nH]c4ccc(C)cc4c3s2)c1 | active: 20.7 µM | –
CC(C)CCSc1nc(N2CCOCC2)c2c(c1C#N)CC(C)(C)OC2 | active: 16.5 µM | –
CCOc1ccc2c(c1)c(=O)c(C(=O)c1ccccc1)cn2Cc1ccccc1F | – | inactive: -16.7%
CC(=O)c1ccccc1NC(=O)COC(=O)C1CCCN1S(=O)(=O)c1ccccc1F (stereo unspecified) | – | inactive: 3.73%
c1cc2c(cc1-c1csc(NNC3=NCCCCC3)n1)OCCO2 | inconclusive: 44.7 µM [inhibitor, partial curve, poor fit] | –
